According to the supplement of paper PMC3334620:
Over roughly 33,000 sequences, “E-score (-0.5 to 0.5)” has its median near -0.035; the highest 2% begin near 0.35. Some of the results follow.

Biological target: T1, Pdr3 (UniProt P33200)
T1 sequence: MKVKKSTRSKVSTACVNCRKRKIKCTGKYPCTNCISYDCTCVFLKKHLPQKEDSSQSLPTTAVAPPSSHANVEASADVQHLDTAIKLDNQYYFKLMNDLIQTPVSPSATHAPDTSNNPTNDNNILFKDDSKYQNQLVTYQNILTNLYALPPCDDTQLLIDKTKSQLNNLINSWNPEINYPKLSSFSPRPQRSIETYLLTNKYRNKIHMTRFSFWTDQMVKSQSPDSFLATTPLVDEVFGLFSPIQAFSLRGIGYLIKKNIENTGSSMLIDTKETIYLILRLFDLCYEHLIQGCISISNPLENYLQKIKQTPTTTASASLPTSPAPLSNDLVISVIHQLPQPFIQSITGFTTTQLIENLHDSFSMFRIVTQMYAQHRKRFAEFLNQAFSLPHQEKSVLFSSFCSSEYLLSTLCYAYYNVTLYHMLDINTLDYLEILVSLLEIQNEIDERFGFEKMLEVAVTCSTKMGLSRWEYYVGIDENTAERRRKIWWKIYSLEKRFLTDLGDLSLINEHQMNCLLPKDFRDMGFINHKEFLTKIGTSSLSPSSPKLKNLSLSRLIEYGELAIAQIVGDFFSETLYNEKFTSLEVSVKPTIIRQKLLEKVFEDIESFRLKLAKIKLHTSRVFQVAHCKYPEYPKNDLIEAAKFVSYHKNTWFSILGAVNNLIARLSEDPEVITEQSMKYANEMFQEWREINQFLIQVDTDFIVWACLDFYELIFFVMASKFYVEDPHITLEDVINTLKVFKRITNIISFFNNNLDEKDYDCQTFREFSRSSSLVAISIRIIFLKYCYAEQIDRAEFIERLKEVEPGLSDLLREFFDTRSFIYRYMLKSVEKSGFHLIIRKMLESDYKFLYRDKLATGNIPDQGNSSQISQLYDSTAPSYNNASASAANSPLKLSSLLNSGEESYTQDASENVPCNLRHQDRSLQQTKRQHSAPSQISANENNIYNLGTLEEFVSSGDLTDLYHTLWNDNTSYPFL
Assay: PBM E-score (8-mer binding enrichment) (E-score (-0.5 to 0.5)); higher = stronger / more preferred TF binding; most listed sequences are background and not binding sites
Settings: protein concentration: 200 nM; construct: GST-full length
Procedure, shortened: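 For each ungapped eight-base word taken together with its reverse complement, the Universal PBM Analysis Suite assigned an E-score. Binding data came from GST-tagged yeast transcription factors, applied at about 100-200 nM, on universal all-10-mer Agilent arrays made double-stranded by primer extension. Fluorescent anti-GST marked bound protein, and scans were normalised with masliner.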

Row | Sequence | PBM E-score
1 | GAGCACAC | -0.172
2 | CTTCCAAG | -0.0526
3 | GTTGCATA | -0.0128
4 | GATCCCCA | -0.00094
5 | CGAATCTA | -0.114
6 | TGGCAGAA | -0.0306
7 | CCCTGTTC | -0.00603
8 | CAACTGGG | -0.063
9 | AACATAAG | 0.0625
10 | CACTCAGG | -0.0441
11 | AACCCACC | 0.161
12 | GACACCGA | -0.0206
13 | AGCAGCTA | -0.0934
14 | CCAATCGA | -0.063
15 | GATACTTA | -0.0634
16 | AGTCTCAG | -0.235
17 | ATCTACTA | -0.00583
18 | AAGCCATG | -0.12
19 | ATGTTAAC | -0.0193
20 | ACTGTTTA | -0.238
21 | CGTAAATA | -0.0294
22 | ATTTTCCG | 0.432
23 | ATTCGTTA | 0.0334
24 | AATCTTGA | -0.112
25 | CGGACTGC | 0.241

Row | Sequence | PBM E-score
26 | AATGCATG | 0.149
27 | ATTGAGCG | 0.0113
28 | GTCGATCA | -0.202
29 | GCCCGGTA | 0.102
30 | GGTTTCAA | 0.0896
31 | ACTTTCTC | -0.0778
32 | CGCCCGCA | 0.174
33 | CACGCTAA | -0.0591
34 | AGTGCCTG | -0.0471
35 | AGCATGCC | 0.121
36 | GGAAGTCA | 0.225
37 | GGGGTCAA | -0.0321
38 | AAACGAGA | -0.0232
39 | AATGCTTA | -0.284
40 | GCTGCCCC | 0.034
41 | AGGCATGG | 0.0628
42 | ACCCATAA | 0.0111
43 | CAGTTAAC | 0.0887
44 | GCCCCCTA | -0.223
45 | AGATCGAG | -0.0852
46 | AACTAGAA | -0.0726
47 | GTCAGGAC | -0.164
48 | CCTAACCC | -0.284
49 | ACGATGCT | -0.128
50 | ATTTTCGA | -0.136

Row | Sequence | PBM E-score
51 | GATGTCCC | 0.128
52 | GCCTTAGC | -0.138
53 | GTGGTCTA | -0.149
54 | AATAGAAC | 0.113
55 | CAGTTGAC | 0.00129
56 | CCGCGCCA | 0.144
57 | GCGTTGAA | 0.0302
58 | AGCGCCCG | 0.0616
59 | ACACCGTC | -0.0357
60 | CTAGTAGA | -0.0894
61 | CACGGCCC | -0.0443
62 | CTTGGGAA | -0.0131
63 | ACCCAACG | -0.0946
64 | ATCCATAC | -0.112
65 | GGGAGTAC | -0.0731
66 | GGGTAGAA | -0.123
67 | ATGAAATA | 0.108
68 | TGAACTCA | -0.177
69 | GCCCTGAA | -0.0391
70 | AATCGCTA | -0.0448
71 | CCTAAAGC | -0.28
72 | AAACTCCC | 0.138
73 | AAGATTAG | -0.0582
74 | GCAGGCCC | -0.146
75 | CTTCAACC | 0.00827

Row | Sequence | PBM E-score
76 | ATATGGAC | -0.144
77 | CCCATTCC | 0.234
78 | AAGACTTC | -0.253
79 | CCGATACG | 0.0982
80 | ACTCCTGG | -0.134
81 | CCGTCAGG | 0.132
82 | GTAATGGA | 0.026
83 | GACCATGC | -0.0171
84 | CAACGTCA | -0.1
85 | TCCAAAAA | -0.132
86 | GAGACCGA | 0.0506
87 | AGCCTGCC | -0.0831
88 | GGCGCCGA | 0.314
89 | AACGAACA | 0.168
90 | ATACAAAC | 0.102
91 | GTACTTAA | -0.229
92 | CACAGGTC | -0.118
93 | ATAGGCCG | 0.0836
94 | CACGTTCG | -0.0145
95 | CTAGGAGA | -0.191
96 | AACCGCGT | 0.141
97 | TGACTCCA | -0.204
98 | TTAATAAA | 0.0974
99 | GAATTGGA | -0.041
100 | CGTTGCCC | 0.101

Row | Sequence | PBM E-score
101 | CCCCTAAG | -0.135
102 | CACGTAGC | -0.256
103 | CATGAACC | 0.179
104 | ATAGTGGG | 0.00433
105 | ACCACGCG | -0.0399
106 | GTCAACCA | -0.227
107 | ATGACGAC | 0.00058
108 | ACTAAACA | -0.168
109 | CGTCATTA | 0.00076
110 | AACCAACA | -0.00136
111 | CGTTTATC | 0.0534
112 | ATCATCCC | 0.0931
113 | CGCGTGGA | -0.0579
114 | CGTGGCAG | -0.0151
115 | GTTAGGGA | -0.12
116 | ACTCACGG | 0.262
117 | ACCGTGGA | 0.174
118 | CAGTAAGA | -0.0579
119 | CCGACGAA | 0.193
120 | GCCTAGGC | -0.0544
121 | ACGTCTAG | -0.158
122 | CCTGGCTC | -0.0432
123 | AGTGACCG | 0.00937
124 | AGGTGAGC | -0.18
125 | ACCCCCTG | -0.236

Row | Sequence | PBM E-score
126 | GCCTGACC | -0.0865
127 | AGTGGTGC | -0.0226
128 | ACCAATGC | 0.0796
129 | CCATCCGG | 0.282
130 | CGATATAA | -0.00948
131 | CCGGAAAA | 0.44
132 | AGAATTGG | -0.0572
133 | AATTTGGA | -0.231
134 | CAAAGTAA | 0.107
135 | ACCCTTCG | -0.0521
136 | ACTTCAAA | -0.186
137 | ACTTTCGG | 0.14
138 | AACGATTC | 0.0286
139 | CAAGTCGG | 0.0937
140 | GTAGGCAC | -0.0416
141 | CTACACAG | -0.305
142 | ACTTCCAA | -0.127
143 | ATGCACAT | -0.0689
144 | ATTTGTCA | -0.2
145 | ATGTAAGA | -0.0241
146 | ACACGACG | -0.0259
147 | AATCAAGT | -0.137
148 | ACTAGAAT | -0.186
149 | AACTATGT | -0.0803
150 | CCGGGGAG | 0.332

Row | Sequence | PBM E-score
151 | ACCAGGGA | -0.191
152 | AGCATTTG | -0.0766
153 | AAAGAAGG | -0.119
154 | GCGAAAGC | -0.0113
155 | AGTACAGG | -0.0909
156 | ATAATGTC | 0.209
157 | CCGTAACA | -0.0633
158 | CGGCTGGC | 0.171
159 | CACTCATA | -0.11
160 | CGATGCCA | -0.147
161 | AATTGTTG | -0.258
162 | GATAAAGA | -0.18
163 | ACAGATTG | 0.0375
164 | AAGGGCTC | -0.247
165 | GTGACTCA | -0.17
166 | ACCACCTG | 0.0602
167 | GCAGTCAC | -0.131
168 | CAAACCGC | 0.108
169 | ACGCGCAA | 0.168
170 | TATTGAGA | -0.188
171 | CCTTTAAG | -0.287
172 | ACCGGCGG | 0.256
